{"source": "the supplement of paper PMC8674133", "binders": {"B1": {"name": "C2470 (protein)", "chain 1": "QVQLVQSGAEVKKPGASVKVSCKASGYTFTSYGFSWVRQAPAQGLEWMGWISAYNGNTKYAQKFQGRVTMTTDTSTSTAYMELRSLRSDDTAVYYCARALTGVYNWFDPWGQGTLVTVSS", "chain 2": "NFMLTQPHSVSESPGKTVTISCTGSSGSIASNYVQWYQQRPGSAPTTVIYEDNQRPSGVPDRFSGSIDSSSNSASLTISGLKTEDEADYYCQSYDTSNVVFGGGTKLTVL"}, "B2": {"name": "C2471 (protein)", "chain 1": "QVQLVQSGAEVKKPGASVKVSCKASGYTFTSYGMSWVRQAPGQGLEWMGWISTYNGNKKYAQKFQGRVTMTTDTSTSTAYMELRSLRFDDTAVYYCARALTGVYNWFDPWGQGTLVTVSS", "chain 2": "NFMLTQPHSVSESPGKTVTISCTGSSGSIATNYVQWYQQRPGSAPTTVIYEDNQRPSGVPDRFSGSIDSSSNSASLTISGLKTEDEADYYCQSYDGTNVVFGGGTKLTVL"}, "B3": {"name": "C2240 (protein)", "chain 1": "QVQLVESGGGLVKPGGSLRLSCAASGFMFSDYYMGWVRQSPGKGLEWLSYISGSSNVIGYADSVKGRFTISRDNAKTSLYLQMNSLAADDTAVYYCARGEQTGVPGGWLDSWGQGTLVTVSS", "chain 2": "DIQMTQSPSSVSASVGDRVTITCRASQGISGWLAWYQQKPGKAPELLISAASSLQSGVPSRFSGSGSGTDFTLTISGLRPEDFATYYCQQTDSFPYTFGQGTKLEIK"}, "B4": {"name": "C2229 (protein)", "chain 1": "EVQLVESGGGLVKPGGSLRLSCAASGFTFSSYSMNWVRQAPGKGLEWVSSISSGSSYIYYADSMKGRFTISRDNAKNSLYLQMNSLRAEDTALYYCARERRSDYSSDWYDPPTTPRSFDYWGQGTLVTVSS", "chain 2": "SYELTQPPSVSVAPGQTARITCGGNNIGSKSVHWYQQKPGQAPVLVVYDDSDRPSGIPERFSGSNSGNTATLTISRVEAGDEADYYCQVWDSRSDHWVFGGGTKLTVL"}, "B5": {"name": "C2459 (protein)", "chain 1": "QVQLVQSGAEVKKPGASVKVSCKASGYTFTSYDINWVRQATGQGLEWMGWMNPNSGNTGYAQKFQGRVTMTRNTSISTAYMELSSLRSEDTAVYYCARGSLIFGVVTHFDYWGQGTLVTVSS", "chain 2": "SYELTQPPSVSVAPGQTARIACGGDNIGSKNVHWYQQKPGQAPVLVVYDDSDRPSGIPERFSGSNSGNTATLTISRVEAGDEADYYCQVWDSSSDHPNWVFGGGTKLTVL"}, "B6": {"name": "C2409 (protein)", "chain 1": "QVQLVQSGAEVKKPGASVKVSCKASGYTFTSYDIHWVRQATGQGLEWMGWMNPNSGNTGYAQTFQGRVSMTRNTSIRTAYMELSSLRSEDTAVYYCARGSLIFGVVTHFDYWGQGALVTVSS", "chain 2": "SYELTQPPSVSVAPGQTARIACGGDNIGSKNVHWYQQKPGQAPVLVVYDDSDRPSGIPERFSGSNSGNTATLTISRVEAGDEADYYCQVWDSSYDHPNWVFGGGTKLTVL"}, "B7": {"name": "C2408 (protein)", "chain 1": "VQLVESGGGVVQPGRSLRLSCAASGFSFSRYGMHWVRQAPGKGLEWVAVISYDGSNKDYVDSVKGRFTISRDSSKNTLYLQMNSLRAEDTAVYYCAKQGEIYCSAGNCYSGYYDYWGQGTLVTVSS", "chain 2": "EIVLTQSPGTLSLSPGERATLSCRASQSVSSSYLAWYQQKPGQAPRLLISGASSRAAGIPDRFRGSGSGTDFTLTISRLEPEDFAVYYCQQYGSSPGTFGQGTKVEIK"}, "B8": {"name": "C2234 (protein)", "chain 1": "VQLVESGGGEVQPGGSLRLSCAASGLTFSSYGMHWVRQAPGKGLEWVAFIRNDGSNKYYADSVKGRFTISRDNSKNTLYLQMNSLRAEDTAVYYCAKDGGYYYESSGYFDYWGQGTLVTVSS", "chain 2": "IRMTQSPSSLSASVGDRVTITCQASQDISNYLNWYQQKPGKAPKLLIYDASNLETGVPSRFSGSGSGTDFTFTISSLQPEDIATYYCQQYDNLPPQFTFGPGTKVDIK"}, "B9": {"name": "C2237 (protein)", "chain 1": "EVQLVESGGGLIQPGGSLRLSCAASGFTVSSNYMSWVRQAPGKGLEWVSVLYSGGSTFYADSVKGRFTISRDNSKNTLYLQMNSLRAEDTAFYYCAREVYAMDVWGQGTTVTVSS", "chain 2": "DIQLTQSPSFLSASVGDRVTITCRASQGISSYLAWYQQKPGKAPKLLIYAASTLQSGVPSRFSGSGSGTEFTLTISSLQPEDFATYYCQQLNSYPGYTFGQGTKLEIK"}, "B10": {"name": "C2460 (protein)", "chain 1": "EVQLVESGGGLIQPGGSLRLSCAASVITVSSNYMSWVRQAPGKGLEWVSLIYSGGSTYYADSVKGRFTISRDNSKNTLYLQMNSLRAEDTAVYYCARDLQQRGGMDVWGQGTTVTVSS", "chain 2": "IRMTQSPSSLSASVGDRVTITCQASQDISNFLNWFQQKPGKAPKLLIYDASNLGAGVPSRFSGSGSGTDFTFTISGLQPEDIATYYCQQYDNLPITFGQGTRLEIK"}, "B11": {"name": "C2239 (protein)", "chain 1": "EVQLLESGGGLVQPGGSLRLSCSASGFTYSYFAMSWVRQAPGKGLEWVSTISGSGGASYYADSVKGRFAISRDNSKDTMYLQMNRLRAEDTAVYYCAKEKFNGDYGGVVDYWGQGTLVTVSS", "chain 2": "IRMTQSPSSLSASVGDRVTITCQASQDIRKFLNWYQQKPGKAPKLLIYDASNLETGVPSRFSGSGSGTEFTLIISSLQPEDIATYCCQQYDNLPITVGGGTKVEIK"}, "B12": {"name": "C2406 (protein)", "chain 1": "EVQLVESGGGLVQPGGSLRLSCAASEFTVSSNYMSWVRQAPGKGLEWVSVIYSGGSTYYADSVKGRFTISRDNSKNTLYLQMNSLRAEDTAIYYCARDRGLVSDYWGQGTLVTVSS", "chain 2": "IRMTQSPSSLSASVGDRVTITCQASQDISNYLNWYQQKPGKAPKLLIYDASNLETGVPSRFSGSGSGTDFTFTISSLQPEDIATYYCQQYDNLPRTFGGGTKVEIK"}, "B13": {"name": "C2235 (protein)", "chain 1": "EVQLVESGGGLIQPGGSLRLSCAASGFTVSSNYMSWVRQAPGKGLEWVSVIYSGGSTFYADSVKGRFTISRDHSKNTLYLQMNSLRAEDTAVYYCARDFGGLRFDYWGQGTLVTVSS", "chain 2": "IRMTQSPSSLSASVGDRVTITCQASQDISNYLNWYQQKPGKAPKLLIYDASNLETGVPSRFSGSGSGTDFTFTISSLQPEDIATYYCQQYDNLPSYTFGQGTKLEIK"}, "B14": {"name": "C2236 (protein)", "chain 1": "EVQLVETGGGLIQPGGSLRLSCAASGFTVSSNYMSWVRQAPGKGLEWVSVVYSGGSTFYADSVKGRFTISRDNSKNTLYLQMNSLRAEDTAVYYCARDRGDSLFDYWGQGTLVTVSS", "chain 2": "DIQMTQSPSTLSASVGDRVTITCRASQSFSTWLAWYQQKPGKAPKLLIYKASSLESGVPSRFSGSGSGTEFTLTISSLQPDDFATYYCQHYNSYSPGGTFGQGTKVEIK"}, "B15": {"name": "C2238 (protein)", "chain 1": "QVQLQQWGAGLLKPSETLSLSCAVYGGSLSGYYWSWIRQPPGKGLEWIGEINHFGSTGYNPSLKSRVTISVDTSKSQFSVKLSSVTAADTAVYYCARKPLLYSNLSPGAFDIWGQGTMVTVSS", "chain 2": "QSALTQPASVSGSPGQSITISCTGTSSDVGGYHYVYVSWYQQHPGKAPKLMIYEVSNRPSGVSNRFSGSKSGNTASLTISGLQAEDEADYYCSSYTSSSALWVFGGGTKLTVL"}, "B16": {"name": "C2208 (protein)", "chain 1": "EVQLLESGGGLVQPGGSLRLSCAASGFTFSSYAMSWVRQAPGKGLEWVSTINGSGGSTYNADSVKGRFTISRDNSKNTLYLQMNSLRAEDTAVYYCAKDLHYDNSGIDDYYYYYGMDVWGQGTTVTVSS", "chain 2": "SYELTQPPSVSVSPGQTASITCSGDKLGDKYACWYQQKPGQSPVLVIYQDTKRPSGIPERFSGSNSGNTATLTISGTQVMDEADYYCQAWGSSTFYVFGTGTRVTVL"}}, "note": "Recombinant human monoclonal antibodies (heavy:light variable regions). ELISA EC50 on the named antigen, from 10 µg/ml down; IC50 / IC90 against spike pseudovirus on 293T-ACE2 cells, 48 h; lower = stronger. Calls: IC50 above 1,000 ng/ml = non-neutralizing; EC50 above 2,000 ng/ml = non-binder. The source prints 1000 for neutralization that was not reached; it is given as >1000 ng/ml. A few antibodies were first reported in earlier work of the same group."}
{"biological_target": "SARS-CoV-2 Wuhan-Hu-1 spike pseudovirus", "test": "pseudovirus neutralization IC50; higher = weaker neutralization", "method": "(§1)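 Single-round luciferase reporter pseudovirus mixed with antibody dilutions and put on 293T-ACE2 cells for 48 h; signal relative to no-antibody wells, four-parameter fit.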", "units": {"pseudovirus neutralization IC50": "µg/mL"}}
{"binder": "B1", "pseudovirus neutralization IC50": 0.501}
{"binder": "B2", "pseudovirus neutralization IC50": 0.346}
{"binder": "B3", "pseudovirus neutralization IC50": "> 1"}
{"binder": "B4", "pseudovirus neutralization IC50": 0.0229}
{"binder": "B5", "pseudovirus neutralization IC50": 0.199}
{"binder": "B6", "pseudovirus neutralization IC50": 0.173}
{"binder": "B7", "pseudovirus neutralization IC50": "> 1"}
{"binder": "B8", "pseudovirus neutralization IC50": "> 1"}
{"binder": "B9", "pseudovirus neutralization IC50": 0.00791}
{"binder": "B10", "pseudovirus neutralization IC50": 0.00693}
{"binder": "B11", "pseudovirus neutralization IC50": "> 1"}
{"binder": "B12", "pseudovirus neutralization IC50": 0.888}
{"binder": "B13", "pseudovirus neutralization IC50": 0.0171}
{"binder": "B14", "pseudovirus neutralization IC50": 0.00715}
{"binder": "B15", "pseudovirus neutralization IC50": "> 1"}
{"binder": "B16", "pseudovirus neutralization IC50": 0.249}
{"biological_target": "SARS-CoV-2 Wuhan-Hu-1 spike pseudovirus", "test": "pseudovirus neutralization IC90; higher = weaker neutralization", "method": "as §1", "units": {"pseudovirus neutralization IC90": "µg/mL"}}
{"binder": "B1", "pseudovirus neutralization IC90": "> 1"}
{"binder": "B2", "pseudovirus neutralization IC90": "> 1"}
{"binder": "B3", "pseudovirus neutralization IC90": "> 1"}
{"binder": "B4", "pseudovirus neutralization IC90": 0.405}
{"binder": "B5", "pseudovirus neutralization IC90": "> 1"}
{"binder": "B6", "pseudovirus neutralization IC90": "> 1"}
{"binder": "B7", "pseudovirus neutralization IC90": "> 1"}
{"binder": "B8", "pseudovirus neutralization IC90": "> 1"}
{"binder": "B9", "pseudovirus neutralization IC90": 0.0474}
{"binder": "B10", "pseudovirus neutralization IC90": 0.0484}
{"binder": "B11", "pseudovirus neutralization IC90": "> 1"}
{"binder": "B12", "pseudovirus neutralization IC90": "> 1"}
{"binder": "B13", "pseudovirus neutralization IC90": 0.0726}
{"binder": "B14", "pseudovirus neutralization IC90": 0.0532}
{"binder": "B15", "pseudovirus neutralization IC90": "> 1"}
{"binder": "B16", "pseudovirus neutralization IC90": "> 1"}
{"biological_target": "SARS-CoV-2 Wuhan-Hu-1 spike receptor-binding domain", "test": "ELISA binding EC50; higher = weaker binding; ELISA of recombinant human antibody on coated antigen, from 10 µg/ml in fourfold dilutions; four-parameter fit.", "units": {"ELISA binding EC50": "µg/mL"}}
{"binder": "B1", "ELISA binding EC50": 0.00141}
{"binder": "B2", "ELISA binding EC50": 0.00166}
{"binder": "B3", "ELISA binding EC50": 0.00206}
{"binder": "B4", "ELISA binding EC50": 0.00256}
{"binder": "B5", "ELISA binding EC50": 0.00352}
{"binder": "B6", "ELISA binding EC50": 0.00236}
{"binder": "B7", "ELISA binding EC50": 0.00129}
{"binder": "B8", "ELISA binding EC50": 0.00185}
{"binder": "B9", "ELISA binding EC50": 0.00203}
{"binder": "B10", "ELISA binding EC50": 0.00189}
{"binder": "B11", "ELISA binding EC50": 0.0133}
{"binder": "B12", "ELISA binding EC50": 0.00316}
{"binder": "B13", "ELISA binding EC50": 0.00137}
{"binder": "B14", "ELISA binding EC50": 0.00169}
{"binder": "B15", "ELISA binding EC50": 5.17}
{"binder": "B16", "ELISA binding EC50": 0.0025}
